Legend:
[1] = tested on: Human melanoma cells (SKMEL28); assay: Cytotoxicity of human LAK cells against melanoma cells, antibody combination, LDH release; type: cell-based; conditions: CM-24 with mAb to human PD-1 (clone E12.2H7), 0.1-0.8 μg/ml each; anti-PD-1 added first
Protocol: FIG. 6. Synergistic effects of anti-CEACAM1 and anti-PD-1 antibodies on the cytotoxicity of human LAK cells against human melanoma cells when anti-PD-1 antibodies are added prior to the addition of anti-CEACAM1 antibodies. Human melanoma cells were grown in the presence of IFN-ã to induce PD-L1 expression. Human LAK cells generated by activation of PBMCs from a healthy human donor with IL-2 were incubated with medium only (white), non-specific IgG antibody (black), various concentrations of a monoclonal antibody to human CEACAM1 (vertical lines), a monoclonal antibody to human PD-L1 (horizontal lines) or a combination of both antibodies (dots). Results represent an average of % cytotoxicity ±SE as determined by classical LDH release assay from triplicate wells per treatment. * P≤0.05 paired T-test compared to a-PD-L1 only. Combination index was calculated as described above.
Human melanoma cancer cells (MALME 3M) were grown in the presence of IFN-ã to induce PD-L1 expression. […] The combination index (CI) was calculated to be 0.15. In the same assay, the level of the cytotoxic protein granzyme B that is secreted upon cytotoxic cell activation was evaluated by commercial granzyme B ELISA Kit. […] The combination index (CI) was calculated to be 0.67. […]

[2] = target: T1, CEACAM1 (Homo sapiens, UniProt P13688); assay: In vitro functional assays for agonistic activity; type: cell-based
T1 sequence (P13688 35-526): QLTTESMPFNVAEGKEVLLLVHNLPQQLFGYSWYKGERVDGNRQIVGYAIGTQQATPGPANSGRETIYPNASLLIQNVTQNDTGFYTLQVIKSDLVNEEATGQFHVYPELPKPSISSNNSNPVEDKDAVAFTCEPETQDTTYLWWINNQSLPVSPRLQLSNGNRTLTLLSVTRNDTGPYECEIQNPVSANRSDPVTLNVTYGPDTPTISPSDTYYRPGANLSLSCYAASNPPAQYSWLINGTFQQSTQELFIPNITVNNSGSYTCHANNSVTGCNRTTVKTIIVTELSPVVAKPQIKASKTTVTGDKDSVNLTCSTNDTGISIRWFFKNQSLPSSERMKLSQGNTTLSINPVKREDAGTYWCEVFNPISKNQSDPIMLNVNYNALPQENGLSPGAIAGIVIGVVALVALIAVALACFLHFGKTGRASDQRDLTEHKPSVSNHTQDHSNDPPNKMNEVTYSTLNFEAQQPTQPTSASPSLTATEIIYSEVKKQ
From the text: (§1) CM-24 enhances the cytotoxic activity of effector cells in the presence of CEACAM1 positive tumor cells and in the context of a specific human leukocyte antigen (HLA)-restricted T cell reaction.

[3] = tested on: complement component—C1q and the ADCC mediator-Fcγ-RIIIa; assay: Binding to Fc effector mediators; conditions: IgG4
From the text: as §1

B1: CM-24: back-mutated humanized IgG4 anti human CEACAM1 monoclonal antibody; light chain SEQ ID NO: 52, heavy chain SEQ ID NO: 53 (antibody)
heavy: QVQLVQSGAEVKKPGASVKVSCKASGYAFTNNLIEWVRQAPGQGLEWIGVINPGSGDTNYNEKFKGRVTMTADKSISTAYMELSRLRSDDTAVYYCARGDYYGGFAVDYWGQGTTVTVSSASTKGPSVFPLAPCSRSTSESTAALGCLVKDYFPEPVTVSWNSGALTSGVHTFPAVLQSSGLYSLSSVVTVPSSSLGTKTYTCNVDHKPSNTKVDKRV[letters of human IgG4 Fc with S228P (EU numbers) left out]
light: DIQMTQSPSSLSASVGDRVTITCRTSQDIGNYLNWYQQKPGKAVKLLIYYTSRLHSGVPSRFSGSGSGTDYTLTISSLQPEDIATYFCQQGKSLPRTFGGGTKVEIKRTVAAPSVFIFPPSDEQLKSGTASVVCLLNNFYPREAKVQWKVDNALQSGNSQESVTEQDSKDSTYSLSSTLTLSKADYEKHKVYACEVTHQGLSSPVTKSFNRGEC
- combination index (CI) [1]: < 0.8
- agonistic activity [2]: does not induce agonistic activity
- binding to C1q and Fcγ-RIIIa [3]: unable to bind

Reference: patent US11866509B2, “Humanized antibodies against CEACAM1” (Famewave Ltd., priority 2014, dated 2024)
